Among all 48,000 compounds or so, about 450 (0.94%) were called active. Another 19% or so got no clear call; they are omitted. The call rests on the fitted dose curve; in most records, active means well fitted inhibition curve with a large enough effect; inconclusive means small, poorly fitted or top-dose-only effect; inactive means no such curve, though single readings can be large or run the other way. This is one part of the list.
assay: Primary qHTS for Identification of Small Molecule Inhibitors of Huntingtin Promoter Activity; details: HEK293 HTT promoter firefly luciferase reporter (activity 0% = vehicle and -100% = no light), 24 h; series mostly up to 57.5 µM; activity change, negative = inhibition: at the top concentration; further: nearly all actives have a fitted effect of over 50% in size
Summary of the method: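 HEK293 Fluc reporter, 2,500 cells/well, 24 h pre-culture; cpds up to 57.5 uM final, 24 h 37 degrees C; Dual-Glo, 10 min RT; normalized vehicle = 0%, zero RLU = -100%.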

Compound	activity change, negative = inhibition
CCCN(CCC)CCNC(=O)c1cc2c(-c3ccccc3F)nn(C)c2s1	inactive: -10.4%
CCN(CC)CCNC(=O)Cn1ncc2c([nH]c3ccccc32)c1=O	inactive: -8.16%
CN1C2CCC1CC(OC(=O)C(CO)c1ccccc1)C2 (centres undefined)	inactive: 1.5%
CCCCN(CC)CCCNC(=O)c1cc2c(-c3ccc(OC)c(OC)c3)nn(C)c2s1	inactive: 10%
CCOc1ccc(-c2cnc(NCc3ccc(OC)cc3OC)n2C)cc1	inactive: -7.4%
COCCNC(=O)C1CCCN(S(=O)(=O)c2ccc3c(ccn3C)c2)C1 (centres undefined)	inactive: -4.67%
Cn1nc(C(=O)N2CCN(c3ccccc3F)CC2)c2c1-c1ccccc1SC2	inactive: -18.4%
O=C1c2oc3ccc(F)cc3c(=O)c2C(c2cccc([N+](=O)[O-])c2)N1CCCN1CCOCC1 (centres undefined)	inactive: -8.77%
Cc1ccc(NC(=O)c2cccn2-c2nnc(N3CCCCC3)s2)cc1Cl	inactive: -18.2%
Cc1ccc2nc(N(Cc3cccnc3)C(=O)C3COc4ccccc4O3)sc2c1 (centres undefined)	inactive: 25%
Cc1ccc(CSc2cn(CC(=O)N3CCCCC3)c3ccccc23)cc1	inactive: -6.44%
COc1ccc(Cl)cc1NC(=O)CCC(=O)c1ccc(C)cc1	inactive: -18.6%
CC(=O)c1ccc(NC(=O)c2ncn(-c3ccccc3)n2)cc1	inactive: 75%
CCCCNC(=O)CCCn1c(=O)c2ccccc2n(Cc2ccccc2C)c1=O	inactive: -7.92%
CCn1cc(C(=O)NCCc2ccccc2)c(=O)c2cc(S(=O)(=O)N(C)C3CCCCC3)ccc21	inactive: -5.73%
CC(=O)c1[nH]c(C)c(C(=O)NCCc2ccc(C)cc2)c1C	inactive: -1.56%
COc1ccc(-c2noc(-c3ccc(NCc4ccccc4OC)c([N+](=O)[O-])c3)n2)cc1	inactive: -7.31%
Cc1ccc(C2=Nc3ccccc3N(CC(=O)Nc3cccc(F)c3)C(=O)C2)cc1C	inactive: 47.6%
CC(=O)Nc1cccc(C(=O)NCc2ccc3c(c2)CCN3C(C)=O)c1	inactive: -21%
CN(C)CCCNc1oc(/C=C/c2ccc(F)cc2)nc1C#N	inactive: -8.67%
Cc1ccc(NC(=O)CCCn2c(=O)c3cccn3c3cccnc32)c(Cl)c1	inactive: 0.605%
O=c1oc2c3c(ccc2c2ccccc12)OCN(Cc1cccc(Cl)c1)C3	inactive: -4.26%

Compound	activity change, negative = inhibition
Cc1c(CCNC(=O)Cc2ccccc2)sc2nc(-c3ccc(F)cc3)nn12	inactive: -14.9%
CCOc1ccccc1N(C)C(=O)C1CCCN(c2ncnc3onc(-c4ccc(F)cc4)c23)C1 (centres undefined)	inactive: -3.54%
O=C(CN1CCN(Cc2ccc(Cl)cc2)C1=O)NCc1ccc(F)cc1	inactive: -28.4%
CCOc1ccc(CNC(=O)c2cc3c(=O)n(C)c4ccccc4c3s2)cc1	inactive: -3.1%
Cc1ccc(NC(=O)Cn2c(=O)n(Cc3ccco3)c(=O)c3ccccc32)cc1	inactive: -4.92%
Cc1ccc(NC(=O)C2CCCN2S(=O)(=O)c2cccc3cccnc23)cc1 (centres undefined)	inactive: -16%
COc1ccc(-c2ccnc3c(-c4ccc(F)cc4)c(C)nn23)cc1OC	inactive: -3.48%
CC1CN(C(=O)N2CCC(C(=O)NC3CCCCCC3)CC2)c2cc(Cl)ccc2O1 (centres undefined)	inactive: 1.94%
Cc1cc(C)n2nc(CNS(=O)(=O)c3ccc(Cl)cc3)nc2n1	inactive: 4.02%
O=C(Cn1cc(SCc2cccc(Cl)c2)c2ccccc21)N1CCOCC1	inactive: 40.5%
O=c1[nH]c(SCc2ccc(F)cc2)nc2c1CCCC2	inactive: -20.2%
COc1cc(C(=O)NC2CC(=O)N(c3cccc(F)c3)C2)cc(OC)c1OC (centres undefined)	inactive: 9.26%
CCC(=O)N1CCc2cc(Br)cc(S(=O)(=O)N3CCN(c4ccccc4)CC3)c21	inactive: 6.47%
CCc1nnc2c(NCc3ccc(F)cc3)nc3ccccc3n12	inactive: -12.9%
CCOc1ccc2nc(N3CCCC(C(=O)Nc4ccc(Br)c(C)c4)C3)sc2c1 (centres undefined)	inactive: 21.4%
COc1ccc2c(c1)CC(C(=O)N1CCC(C(N)=O)CC1)CO2 (centres undefined)	inactive: -11.7%
COc1ccc2c(c1)NC(c1ccc(OCC(C)C)cc1)=NC(c1ccncc1)=N2	inactive: -19%
CCOc1ccc(-c2n[nH]c3c2C(c2ccccc2OC)N(c2ccc(Br)cc2)C3=O)cc1 (centres undefined)	inactive: 0.501%
COc1ccccc1N1CCN(C(=O)c2oc3ccccc3c2NC(=O)C(C)Oc2ccccc2)CC1 (centres undefined)	inactive: -15.2%
O=C(Nc1cc(Cl)cc(Cl)c1)c1ccc(F)c(S(=O)(=O)N2CCCCCC2)c1	inactive: -9.54%
COc1cc2c(=O)n(Cc3ccccc3)c(=O)n(CC(=O)Nc3cc(C(F)(F)F)ccc3Cl)c2cc1OC	inactive: -7.27%
O=C(Cn1cccc1C(=O)c1ccccc1)NCc1ccc(F)cc1	inactive: 5.25%

Compound	activity change, negative = inhibition
COC(=O)c1cc2oc(C)cc2n1Cc1c(C)cc(C)cc1C	inactive: -0.566%
COc1ccc(C2c3c(n(C)c4ccccc34)C(=O)N2CC(=O)Nc2ccc(Cl)cc2)cc1 (centres undefined)	inactive: -30.4%
CCOC(=O)c1c(C)oc2ncnc(NCCc3ccccc3)c12	inactive: -17.3%
CCc1ccc(N2CCn3c2nc2c3c(=O)n(Cc3cccc(C)c3)c(=O)n2C)cc1	inactive: 0.101%
COc1cc2nc(SCC(=O)Nc3ccc(F)cc3)n3nc(CCn4c(C)nc5ccccc54)nc3c2cc1OC	inactive: 1.33%
Cc1ccc(OC(=O)c2snnc2C)cc1C	inactive: -3.45%
Cc1ccc(NC(=O)C(=O)NCC(c2ccc3c(c2)OCO3)N2CCOCC2)c(C)c1 (centres undefined)	inactive: -8.87%
O=C(CSc1ncc2c(n1)-c1ccccc1N(Cc1ccc(F)cc1)S2(=O)=O)c1ccc(Br)cc1	inactive: -10.7%
CCCN1CCN(CCNC(=O)Nc2cc(OC)cc(OC)c2)CC1	inactive: -1.42%
Cc1cccc(NC(=O)CSc2nc3ccc(NC(=O)c4cccs4)cc3s2)c1	inactive: -2.16%
CC(C)c1ccc(OCc2cc(=O)n3c4c(sc3n2)CCCC4)cc1	inactive: -4.29%
COc1ccccc1NC(=O)CN(c1ccc(C(C)C)cc1)S(=O)(=O)c1c(C)noc1C	inactive: -23.6%
CCOC(=O)c1ccc(CSc2nnc3cc(C)c4ccccc4n23)cc1	inactive: -9.88%
COc1ccc(-c2oc3ncn4nc(-c5ccc(Cl)cc5)nc4c3c2-c2ccc(OC)cc2)cc1	inactive: -9.99%
CCN(CC)CCN(C(=O)c1ccco1)c1nc2c(C)cccc2s1	inactive: 24.7%
CCCCOC(=O)CC(CC(=O)OCCCC)(OC(C)=O)C(=O)OCCCC	inactive: 1.12%
COc1cccc(CNC(=O)COc2cc(=O)n(C)c3ccccc23)c1	inactive: 12.6%
COc1ccc(S(=O)(=O)Nc2ccc(-c3cn4c(C)csc4n3)cc2)cc1	inactive: -16.1%
Cc1ccc(N2CCN(S(=O)(=O)c3cccc4ccccc34)CC2)cc1Cl	inactive: -0.84%
O=C(Nc1cccc(C(F)(F)F)c1)c1cc(CN2CCOCC2)on1	inactive: -12.6%
